Assay [1] addresses T1, Serine/threonine-protein kinase Nek9 (Homo sapiens) (UniProt Q8TD19).
T1 sequence (whole entry): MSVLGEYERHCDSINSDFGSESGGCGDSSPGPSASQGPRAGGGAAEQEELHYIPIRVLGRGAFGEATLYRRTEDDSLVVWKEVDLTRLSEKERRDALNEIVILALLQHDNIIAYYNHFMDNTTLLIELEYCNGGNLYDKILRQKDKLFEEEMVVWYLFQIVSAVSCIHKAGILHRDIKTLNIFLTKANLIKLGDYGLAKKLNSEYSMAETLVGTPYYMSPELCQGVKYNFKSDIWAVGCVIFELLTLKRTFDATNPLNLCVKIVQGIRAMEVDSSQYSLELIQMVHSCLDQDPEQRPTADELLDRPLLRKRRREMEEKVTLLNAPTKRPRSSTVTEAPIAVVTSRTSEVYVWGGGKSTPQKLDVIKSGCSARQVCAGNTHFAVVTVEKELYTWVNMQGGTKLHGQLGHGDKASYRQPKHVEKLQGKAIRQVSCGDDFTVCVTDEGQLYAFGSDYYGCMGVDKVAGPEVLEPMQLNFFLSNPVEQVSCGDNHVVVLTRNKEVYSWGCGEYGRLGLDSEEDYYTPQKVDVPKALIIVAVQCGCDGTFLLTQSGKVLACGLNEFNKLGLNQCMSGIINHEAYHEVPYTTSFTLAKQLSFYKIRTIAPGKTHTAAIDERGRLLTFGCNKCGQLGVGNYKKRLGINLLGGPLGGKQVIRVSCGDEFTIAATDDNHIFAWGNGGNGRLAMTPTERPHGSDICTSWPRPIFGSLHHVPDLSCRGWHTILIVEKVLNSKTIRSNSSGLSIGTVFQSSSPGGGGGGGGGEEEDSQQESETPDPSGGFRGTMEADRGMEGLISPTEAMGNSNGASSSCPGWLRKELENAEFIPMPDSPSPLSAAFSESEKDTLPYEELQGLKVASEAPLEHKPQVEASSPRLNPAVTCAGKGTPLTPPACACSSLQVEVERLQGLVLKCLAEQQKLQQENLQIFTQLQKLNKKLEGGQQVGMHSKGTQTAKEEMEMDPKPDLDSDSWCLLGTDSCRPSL
The settings on record: at 1 µM.

The target in assay [2] is Serine/threonine-protein kinase PLK1 (Homo sapiens) (UniProt P53350). The following applies: at 0.1 µM.
Assay [3] has the same target. The following applies: at 1 µM.
In assay [4] the target is T2, Dual specificity protein kinase TTK (Homo sapiens) (UniProt P33981).
T2 sequence (whole entry): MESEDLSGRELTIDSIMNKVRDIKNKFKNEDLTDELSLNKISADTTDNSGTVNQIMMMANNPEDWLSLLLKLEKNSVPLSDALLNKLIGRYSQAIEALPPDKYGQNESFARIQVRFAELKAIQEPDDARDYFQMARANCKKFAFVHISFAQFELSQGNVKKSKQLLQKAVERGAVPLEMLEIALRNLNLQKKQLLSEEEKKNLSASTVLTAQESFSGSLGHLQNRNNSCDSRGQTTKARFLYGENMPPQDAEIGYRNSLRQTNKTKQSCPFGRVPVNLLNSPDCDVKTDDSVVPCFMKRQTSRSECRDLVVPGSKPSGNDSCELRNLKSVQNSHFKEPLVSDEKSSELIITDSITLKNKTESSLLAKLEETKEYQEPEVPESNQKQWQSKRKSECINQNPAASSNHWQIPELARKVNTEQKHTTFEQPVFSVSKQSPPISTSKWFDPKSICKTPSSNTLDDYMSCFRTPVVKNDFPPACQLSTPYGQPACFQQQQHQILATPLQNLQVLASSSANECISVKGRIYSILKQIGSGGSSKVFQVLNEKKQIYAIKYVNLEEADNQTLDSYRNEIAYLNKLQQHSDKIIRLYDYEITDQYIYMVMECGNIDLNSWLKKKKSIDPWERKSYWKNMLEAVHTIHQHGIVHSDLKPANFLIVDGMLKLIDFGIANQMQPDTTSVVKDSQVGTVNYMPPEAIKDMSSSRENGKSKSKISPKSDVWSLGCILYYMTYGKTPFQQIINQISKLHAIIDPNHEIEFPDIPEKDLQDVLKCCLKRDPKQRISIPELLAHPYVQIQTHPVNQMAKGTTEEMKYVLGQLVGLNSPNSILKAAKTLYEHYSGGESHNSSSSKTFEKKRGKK
The settings on record: at 0.1 µM.

For assay [5], the system named is T3, Receptor-type tyrosine-protein kinase FLT3 (Homo sapiens), P36888 [D835Y].
T3 sequence (whole entry): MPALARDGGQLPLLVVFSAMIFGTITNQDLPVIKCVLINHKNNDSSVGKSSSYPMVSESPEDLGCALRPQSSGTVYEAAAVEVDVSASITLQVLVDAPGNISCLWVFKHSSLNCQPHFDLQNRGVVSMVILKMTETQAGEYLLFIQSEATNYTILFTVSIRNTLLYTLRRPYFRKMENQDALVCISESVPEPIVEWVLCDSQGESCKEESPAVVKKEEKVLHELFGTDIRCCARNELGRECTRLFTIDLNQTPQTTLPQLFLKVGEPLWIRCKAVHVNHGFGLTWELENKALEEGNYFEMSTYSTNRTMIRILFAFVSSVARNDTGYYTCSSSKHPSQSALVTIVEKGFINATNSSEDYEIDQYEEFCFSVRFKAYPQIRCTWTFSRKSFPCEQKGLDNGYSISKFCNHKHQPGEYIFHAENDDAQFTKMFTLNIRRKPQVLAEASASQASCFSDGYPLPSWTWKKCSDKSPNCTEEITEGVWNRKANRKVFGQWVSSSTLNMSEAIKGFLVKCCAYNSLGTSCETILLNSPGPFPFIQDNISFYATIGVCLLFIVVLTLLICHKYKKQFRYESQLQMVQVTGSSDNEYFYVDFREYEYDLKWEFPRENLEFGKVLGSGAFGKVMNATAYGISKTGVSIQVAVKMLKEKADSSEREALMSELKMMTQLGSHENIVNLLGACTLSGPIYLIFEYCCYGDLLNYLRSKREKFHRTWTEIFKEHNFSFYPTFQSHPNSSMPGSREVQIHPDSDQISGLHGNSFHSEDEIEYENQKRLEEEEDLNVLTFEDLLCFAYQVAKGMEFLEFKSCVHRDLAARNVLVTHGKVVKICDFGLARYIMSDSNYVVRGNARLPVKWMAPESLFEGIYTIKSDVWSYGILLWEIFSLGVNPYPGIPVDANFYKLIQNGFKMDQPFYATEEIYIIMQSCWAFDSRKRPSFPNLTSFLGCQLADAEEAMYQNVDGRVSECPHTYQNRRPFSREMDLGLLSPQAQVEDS
The following applies: at 1 µM.

Assay [6] has as its target Vascular endothelial growth factor receptor 3 (Homo sapiens) (UniProt P35916). The settings on record: at 0.1 µM.
The target is the same in assay [7]. The settings on record: at 1 µM.
Assay [8] concerns the target Macrophage colony-stimulating factor 1 receptor (Homo sapiens) (UniProt P07333). The following applies: at 0.1 µM.
Assay [9] has the same target. The settings on record: at 1 µM.
The target of assay [10] is Tyrosine-protein kinase Fyn (Homo sapiens) (UniProt P06241). The following applies: at 0.1 µM.
The target is the same in assay [11]. The settings on record: at 1 µM.
The target of assay [12] is Tyrosine-protein kinase HCK (Homo sapiens) (UniProt P08631). The settings on record: at 0.1 µM.
For assay [13] the target is unchanged. The following applies: at 1 µM.
Assay [14] concerns the target Insulin-like growth factor 1 receptor (Homo sapiens) (UniProt P08069). The following applies: at 0.1 µM.
Assay [15] has the same target. The following applies: at 1 µM.
The target of assay [16] is Insulin receptor (Homo sapiens) (UniProt P06213). The following applies: at 0.1 µM.
The target is the same in assay [17]. The following applies: at 1 µM.
The target of assay [18] is Insulin receptor-related protein (Homo sapiens) (UniProt P14616). The following applies: at 0.1 µM.
Assay [19] has the same target. The following applies: at 1 µM.
The target of assay [20] is T4, Tyrosine-protein kinase ITK/TSK (Homo sapiens) (UniProt Q08881).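 Also: mean percent inhibition of ITK from the GSK PKIS screen.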
T4 sequence (whole entry): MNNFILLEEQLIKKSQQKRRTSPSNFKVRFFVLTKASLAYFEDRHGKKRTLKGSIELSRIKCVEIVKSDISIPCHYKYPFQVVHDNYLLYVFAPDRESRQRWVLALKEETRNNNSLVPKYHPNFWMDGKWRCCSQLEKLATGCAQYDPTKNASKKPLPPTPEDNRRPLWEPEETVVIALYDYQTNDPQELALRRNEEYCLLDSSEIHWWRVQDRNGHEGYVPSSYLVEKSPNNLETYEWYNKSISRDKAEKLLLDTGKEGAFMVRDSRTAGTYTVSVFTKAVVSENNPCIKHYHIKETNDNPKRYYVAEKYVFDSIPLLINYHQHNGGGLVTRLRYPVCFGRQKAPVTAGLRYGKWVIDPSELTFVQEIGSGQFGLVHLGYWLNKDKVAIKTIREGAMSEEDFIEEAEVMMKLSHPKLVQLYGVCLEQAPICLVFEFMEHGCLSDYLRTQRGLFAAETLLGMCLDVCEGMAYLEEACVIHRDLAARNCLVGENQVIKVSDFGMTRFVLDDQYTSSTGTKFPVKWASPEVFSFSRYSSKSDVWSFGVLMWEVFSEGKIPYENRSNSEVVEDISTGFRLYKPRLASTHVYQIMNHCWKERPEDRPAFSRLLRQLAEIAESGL
The following applies: at 0.1 µM.

For some of these results: Most of the strong results are listed elsewhere, so they are rarer here than in the full data. The list shows a part of the results, in another mix than the full data.

UniProt P08631, sequence (P08631 whole entry, looked up): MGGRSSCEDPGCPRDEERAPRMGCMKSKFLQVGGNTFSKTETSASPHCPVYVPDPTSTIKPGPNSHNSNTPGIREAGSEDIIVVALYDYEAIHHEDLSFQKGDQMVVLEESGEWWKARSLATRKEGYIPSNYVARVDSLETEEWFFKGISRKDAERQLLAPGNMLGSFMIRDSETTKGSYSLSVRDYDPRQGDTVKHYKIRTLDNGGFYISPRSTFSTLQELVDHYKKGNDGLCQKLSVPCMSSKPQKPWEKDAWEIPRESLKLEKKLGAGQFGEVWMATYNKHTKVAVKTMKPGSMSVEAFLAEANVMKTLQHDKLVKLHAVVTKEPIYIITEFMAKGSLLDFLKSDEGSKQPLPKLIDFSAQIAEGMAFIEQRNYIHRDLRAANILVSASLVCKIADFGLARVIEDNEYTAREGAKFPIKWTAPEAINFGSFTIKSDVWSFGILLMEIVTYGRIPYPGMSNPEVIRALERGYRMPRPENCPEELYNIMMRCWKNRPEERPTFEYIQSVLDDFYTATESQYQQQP
UniProt P06241, sequence (P06241 whole entry, looked up): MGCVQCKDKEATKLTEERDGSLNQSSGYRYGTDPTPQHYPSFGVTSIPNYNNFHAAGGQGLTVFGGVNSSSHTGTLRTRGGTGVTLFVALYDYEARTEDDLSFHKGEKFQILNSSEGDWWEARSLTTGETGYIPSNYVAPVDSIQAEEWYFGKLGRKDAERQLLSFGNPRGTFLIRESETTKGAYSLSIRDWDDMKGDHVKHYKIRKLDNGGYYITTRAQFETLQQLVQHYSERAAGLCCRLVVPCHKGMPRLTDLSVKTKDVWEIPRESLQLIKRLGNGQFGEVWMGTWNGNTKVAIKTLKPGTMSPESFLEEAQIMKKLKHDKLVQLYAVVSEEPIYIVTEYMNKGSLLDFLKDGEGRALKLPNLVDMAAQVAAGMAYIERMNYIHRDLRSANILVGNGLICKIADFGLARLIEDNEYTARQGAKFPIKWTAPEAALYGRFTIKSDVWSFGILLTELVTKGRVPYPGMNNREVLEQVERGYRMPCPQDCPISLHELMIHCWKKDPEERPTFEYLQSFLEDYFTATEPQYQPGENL
UniProt P08069, sequence (P08069 whole entry, looked up): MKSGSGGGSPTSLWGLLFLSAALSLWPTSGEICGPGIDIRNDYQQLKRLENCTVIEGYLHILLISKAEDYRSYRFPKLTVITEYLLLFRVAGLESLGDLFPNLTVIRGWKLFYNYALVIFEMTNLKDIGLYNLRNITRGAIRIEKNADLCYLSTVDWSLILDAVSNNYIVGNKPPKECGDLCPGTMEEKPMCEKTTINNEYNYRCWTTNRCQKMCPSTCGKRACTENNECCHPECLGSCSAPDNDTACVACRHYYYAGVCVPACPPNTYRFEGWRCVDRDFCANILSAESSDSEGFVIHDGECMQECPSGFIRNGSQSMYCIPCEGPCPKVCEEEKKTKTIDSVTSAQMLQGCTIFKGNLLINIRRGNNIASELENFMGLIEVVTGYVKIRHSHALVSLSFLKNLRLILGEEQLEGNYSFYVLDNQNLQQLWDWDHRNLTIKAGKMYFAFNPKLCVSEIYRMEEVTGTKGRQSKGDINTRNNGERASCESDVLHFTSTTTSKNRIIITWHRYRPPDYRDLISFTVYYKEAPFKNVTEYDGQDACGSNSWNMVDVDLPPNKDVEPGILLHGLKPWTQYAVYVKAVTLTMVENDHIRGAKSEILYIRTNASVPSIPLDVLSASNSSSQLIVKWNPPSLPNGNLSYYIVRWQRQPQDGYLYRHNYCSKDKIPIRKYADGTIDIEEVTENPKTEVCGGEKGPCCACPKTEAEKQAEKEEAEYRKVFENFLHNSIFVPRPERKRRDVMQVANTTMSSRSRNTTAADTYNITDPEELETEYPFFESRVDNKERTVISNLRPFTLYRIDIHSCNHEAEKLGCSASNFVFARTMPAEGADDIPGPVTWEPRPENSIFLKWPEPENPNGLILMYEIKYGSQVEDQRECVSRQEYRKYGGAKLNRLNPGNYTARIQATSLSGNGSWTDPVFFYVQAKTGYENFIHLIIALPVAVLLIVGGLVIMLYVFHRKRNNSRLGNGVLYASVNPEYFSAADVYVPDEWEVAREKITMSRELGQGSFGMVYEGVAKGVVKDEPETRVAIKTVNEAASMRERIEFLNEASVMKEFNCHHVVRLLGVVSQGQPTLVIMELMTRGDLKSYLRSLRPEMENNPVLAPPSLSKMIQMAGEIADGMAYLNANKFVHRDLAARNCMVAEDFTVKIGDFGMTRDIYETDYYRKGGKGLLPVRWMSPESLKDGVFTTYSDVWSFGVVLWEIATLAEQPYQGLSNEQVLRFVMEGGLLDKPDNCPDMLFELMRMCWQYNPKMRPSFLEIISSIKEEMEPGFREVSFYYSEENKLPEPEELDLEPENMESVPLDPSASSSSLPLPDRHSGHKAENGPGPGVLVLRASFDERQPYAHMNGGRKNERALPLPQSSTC
UniProt P06213, sequence (P06213 whole entry): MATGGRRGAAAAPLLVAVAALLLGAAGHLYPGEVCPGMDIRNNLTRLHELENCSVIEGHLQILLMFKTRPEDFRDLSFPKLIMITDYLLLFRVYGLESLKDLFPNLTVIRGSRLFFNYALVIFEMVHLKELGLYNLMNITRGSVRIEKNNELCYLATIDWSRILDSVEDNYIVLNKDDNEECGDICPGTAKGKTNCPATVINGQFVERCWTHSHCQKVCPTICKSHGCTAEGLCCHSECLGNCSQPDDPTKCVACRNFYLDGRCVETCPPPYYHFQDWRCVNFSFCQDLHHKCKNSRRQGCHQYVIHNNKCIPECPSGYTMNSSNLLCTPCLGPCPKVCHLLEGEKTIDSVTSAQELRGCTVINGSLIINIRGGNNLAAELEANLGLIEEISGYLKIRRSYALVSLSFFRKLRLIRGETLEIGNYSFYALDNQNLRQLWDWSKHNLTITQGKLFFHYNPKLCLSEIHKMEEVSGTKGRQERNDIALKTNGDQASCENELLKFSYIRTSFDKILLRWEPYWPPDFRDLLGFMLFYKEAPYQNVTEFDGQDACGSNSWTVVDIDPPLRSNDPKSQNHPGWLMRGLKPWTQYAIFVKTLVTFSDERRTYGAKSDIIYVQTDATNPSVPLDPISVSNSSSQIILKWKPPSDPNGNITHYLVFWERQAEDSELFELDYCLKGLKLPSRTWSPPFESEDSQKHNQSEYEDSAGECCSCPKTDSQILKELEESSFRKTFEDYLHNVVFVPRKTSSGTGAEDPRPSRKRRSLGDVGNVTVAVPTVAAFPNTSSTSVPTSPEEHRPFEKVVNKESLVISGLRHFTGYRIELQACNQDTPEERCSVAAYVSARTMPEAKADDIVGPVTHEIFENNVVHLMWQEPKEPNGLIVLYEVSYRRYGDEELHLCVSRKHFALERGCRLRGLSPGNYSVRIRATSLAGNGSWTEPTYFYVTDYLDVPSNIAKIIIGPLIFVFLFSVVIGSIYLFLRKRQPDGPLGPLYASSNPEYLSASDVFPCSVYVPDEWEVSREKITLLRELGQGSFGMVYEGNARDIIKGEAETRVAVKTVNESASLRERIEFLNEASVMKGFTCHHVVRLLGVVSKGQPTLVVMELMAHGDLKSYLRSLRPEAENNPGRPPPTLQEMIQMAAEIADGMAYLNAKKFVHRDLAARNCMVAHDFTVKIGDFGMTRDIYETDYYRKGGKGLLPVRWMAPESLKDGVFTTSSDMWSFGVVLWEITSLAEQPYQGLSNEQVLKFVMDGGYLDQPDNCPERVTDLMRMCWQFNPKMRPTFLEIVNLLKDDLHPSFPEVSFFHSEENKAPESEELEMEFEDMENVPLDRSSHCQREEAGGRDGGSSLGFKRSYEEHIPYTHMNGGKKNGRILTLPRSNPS
UniProt P14616, sequence (P14616 whole entry): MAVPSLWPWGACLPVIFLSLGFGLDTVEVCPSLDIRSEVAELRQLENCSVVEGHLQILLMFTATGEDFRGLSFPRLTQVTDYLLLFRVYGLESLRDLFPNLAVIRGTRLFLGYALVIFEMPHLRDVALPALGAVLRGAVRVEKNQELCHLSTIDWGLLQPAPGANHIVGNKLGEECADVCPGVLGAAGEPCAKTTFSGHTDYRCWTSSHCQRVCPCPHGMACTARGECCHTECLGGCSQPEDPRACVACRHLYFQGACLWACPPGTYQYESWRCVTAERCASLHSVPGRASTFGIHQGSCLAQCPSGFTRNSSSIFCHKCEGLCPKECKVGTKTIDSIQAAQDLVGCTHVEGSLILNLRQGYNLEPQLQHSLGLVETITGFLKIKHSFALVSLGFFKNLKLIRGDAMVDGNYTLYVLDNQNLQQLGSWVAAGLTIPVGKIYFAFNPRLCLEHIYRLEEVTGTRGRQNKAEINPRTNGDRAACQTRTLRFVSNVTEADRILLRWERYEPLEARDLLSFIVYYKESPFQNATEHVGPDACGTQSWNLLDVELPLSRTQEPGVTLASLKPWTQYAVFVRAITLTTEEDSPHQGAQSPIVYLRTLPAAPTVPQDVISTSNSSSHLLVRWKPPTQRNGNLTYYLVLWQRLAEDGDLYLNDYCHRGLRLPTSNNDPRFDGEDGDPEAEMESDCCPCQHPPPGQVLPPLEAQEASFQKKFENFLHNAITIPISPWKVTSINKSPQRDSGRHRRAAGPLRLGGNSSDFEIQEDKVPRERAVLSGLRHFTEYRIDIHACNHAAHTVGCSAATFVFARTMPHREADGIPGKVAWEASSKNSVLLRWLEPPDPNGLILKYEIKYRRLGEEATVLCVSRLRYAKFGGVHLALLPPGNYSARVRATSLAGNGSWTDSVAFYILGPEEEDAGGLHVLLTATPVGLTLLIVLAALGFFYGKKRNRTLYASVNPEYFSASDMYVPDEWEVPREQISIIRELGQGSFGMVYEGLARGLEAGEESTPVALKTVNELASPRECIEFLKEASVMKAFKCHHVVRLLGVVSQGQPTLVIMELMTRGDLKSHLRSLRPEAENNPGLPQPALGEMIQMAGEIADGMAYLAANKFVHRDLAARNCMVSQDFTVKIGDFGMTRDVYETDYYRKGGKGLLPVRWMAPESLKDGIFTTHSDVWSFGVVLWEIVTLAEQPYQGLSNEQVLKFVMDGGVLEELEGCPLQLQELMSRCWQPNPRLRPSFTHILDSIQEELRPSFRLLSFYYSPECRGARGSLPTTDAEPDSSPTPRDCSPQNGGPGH

Take `CC(C)(C)c1ccc(Oc2nccc(-c3c(-c4ccc(F)cc4)ncn3C3CCNCC3)n2)cc1`: the inhibition in assay [1] was 12.6%; in assay [2], 4.97%; in assay [3], 4.16%; in assay [4], 10.3%; in assay [5] it was 1.76%; in assay [6], 0.78%. Further, the inhibition is 0.42% in [7]; -0.24% in assay [8]; 2.13% in assay [9]; 0.6% in assay [10]; 5.3% in [11]; 7.2% in assay [12]. Also, the inhibition was 8.3% in assay [13]; -1.9% in assay [14]; 1.32% in [15]; 1.4% in [16]; 5.16% in [17]; 2.47% in [18]. Besides, the inhibition in assay [19] is 1.93%; in assay [20], -0.32%.

For the compound `Fc1ccc(-c2ncn(C3CCNCC3)c2-c2ccnc(Oc3cccc(F)c3)n2)cc1`, the inhibition in [1] is 8.15%; in assay [2], 5.87%; in assay [3], 7.08%; in assay [4] it was 6.94%; in [5] it was 1.88%; in assay [6], 5.84%. For the same compound, the inhibition was 2.46% in assay [7]; 4.37% in assay [8]; 10.5% in [9]; 4.95% in assay [10]; 9.46% in assay [11]; 10.4% in assay [12]. Also, the inhibition in assay [13] turned out to be 17.6%; in [14] it was 3.86%; in [15], 3.63%; in assay [16] it was 8.06%; in assay [17], 5.93%; in [18] it was 2.5%. Further, the inhibition in assay [19] is 2.72%; in [20], 2.54%.

Take `O=C1NC(=O)C(c2ccccc2)=C1Nc1ccccc1`: the inhibition was found to be 16.3% in assay [1]; 4.07% in [2]; 3.37% in assay [3]; 9.86% in assay [4]; 2.56% in assay [5]; 6.24% in [6]. For the same compound, the inhibition was 11.6% in assay [7]; 2.47% in assay [8]; 4.84% in [9]; 2.43% in assay [10]; 4.25% in [11]; 10.2% in assay [12]. In addition, the inhibition in [13] was 15.1%; in [14], 5.39%; in assay [15], 4.3%; in assay [16], 6.5%; in [17], 8.98%; in assay [18] it was 2.18%. Moreover, the inhibition in [19] came to 3.78%; in assay [20] it was 2.2%.

For the compound `COc1ccccc1Oc1nccc(-c2c(-c3ccc(F)cc3)ncn2C2CCNCC2)n1`, the inhibition was found to be 6.21% in assay [1]; 5.14% in assay [2]; 26.4% in assay [3]; 13.3% in assay [4]; 0.62% in assay [5]; 2.32% in assay [6]. The inhibition is 2.71% in assay [7]; -0.34% in [8]; 7.51% in [9]; 0.99% in assay [10]; 3.33% in [11]; 7.51% in assay [13]. For the same compound, the inhibition is -0.76% in [14]; 0.06% in [15]; 4.99% in assay [16]; 3.4% in assay [17]; 2.3% in assay [18]; 3.66% in assay [19]. Also, the inhibition in assay [20] came out at 1.35%.

As a reminder, the inhibition is the relative decrease from the control value, in per cent.

For the origin of these results see ChEMBL document CHEMBL1961873, “Compounds: GSK PKIS; Assays: Nanosyn kinase panel” (2012).
